Data reported in patent US11419945B2, “Antigen binding proteins” (Glaxo Group Limited, priority 2011, dated 2022).

T1: Human commercial BCMA (Homo sapiens, UniProt Q02223)
T1 construct: purchased US Biological B0410
T1 sequence (Q02223 1-184): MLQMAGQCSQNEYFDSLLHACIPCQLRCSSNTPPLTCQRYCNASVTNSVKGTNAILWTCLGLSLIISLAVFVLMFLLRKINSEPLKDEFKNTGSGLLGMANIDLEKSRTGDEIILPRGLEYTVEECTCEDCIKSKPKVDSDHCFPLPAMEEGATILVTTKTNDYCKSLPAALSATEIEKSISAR

B1: S307118G03 Chimera: chimeric S307118G03, heavy chain SEQ ID NO:73, light chain SEQ ID NO:75 (antibody)
heavy: EVQLQQSGPELVKPGASVKISCKASGYTFTDYYMKWVKQSHGKSLEWIGEIYPNNGGITYNQKFKGKATLTVDKSSSTAYMELRSLTSEDSAVYYCANGYEFVYWGQGTLVTVSAAKTTAPSVFPLAPSSKSTSGGTAALGCLVKDYFPEPVTVSWNSGALTSGVHTFPAVLQSSGLYSLSSVVTVPSSSLGTQTYICNVNHKPSNTKVDKKV[omitted - human IgG1 Fc]
light: DIQMTQTASSLSASLGDRVTISCSASQGISNYLNWYQQKPDGTVKLLIYYTSSLHSGVPSRFSGSGSGTDYSLTISNLEPEDIATYYCQQYSKLPWTFGGGTKLELKRTVAAPSVFIFPPSDEQLKSGTASVVCLLNNFYPREAKVQWKVDNALQSGNSQESVTEQDSKDSTYSLSSTLTLSKADYEKHKVYACEVTHQGLSSPVTKSFNRGEC
modifications: Chimeric antibody sequence
B2: S332110D07: new anti-BCMA chimeric construct, probably S322110D07 (heavy chain SEQ ID NO:126, light chain SEQ ID NO:130) (antibody)
heavy: EVQLQQSGPELVKPGTSVKIPCKTSGYIFTDYSIDWVKQSHGKSLEWIGDIDPNYGDPIYNHKFKGKATLTVDRSSSTAYMELRSLTSEDTAVYFCARRATGTDWFAFWGQGTLVTVSS[omitted - human IgG1 constant region]
light: DIQMTQSPASLSVSVGETVTITCRASENIYNNLAWYQQKQGKSPQLLVYAATILADGVPSRFSGSGSGTQYSLKINSLQSGDFGTYYCQHFWGTPLTFGAGTKLELKRTVAAPSVFIFPPSDEQLKSGTASVVCLLNNFYPREAKVQWKVDNALQSGNSQESVTEQDSKDSTYSLSSTLTLSKADYEKHKVYACEVTHQGLSSPVTKSFNRGEC
modifications: Chimeric antibody sequence

Columns and labels:
Type in all cases: binding
Human in house BCMA [1] = biological target: T2, Human in house BCMA (Homo sapiens, UniProt Q02223); assay: ProteOn analysis of CA8 chimeric and humanised constructs, human in house BCMA; conditions: 25° C.; for ka: in M-1s-1 (unit assumed); for kd: in s-1 (unit assumed)
T2 construct: CD33 signal peptide (N); TEV site (internal); Fc (C); made in house
T2 sequence (Q02223 with tags, fused parts or gaps limits assumed): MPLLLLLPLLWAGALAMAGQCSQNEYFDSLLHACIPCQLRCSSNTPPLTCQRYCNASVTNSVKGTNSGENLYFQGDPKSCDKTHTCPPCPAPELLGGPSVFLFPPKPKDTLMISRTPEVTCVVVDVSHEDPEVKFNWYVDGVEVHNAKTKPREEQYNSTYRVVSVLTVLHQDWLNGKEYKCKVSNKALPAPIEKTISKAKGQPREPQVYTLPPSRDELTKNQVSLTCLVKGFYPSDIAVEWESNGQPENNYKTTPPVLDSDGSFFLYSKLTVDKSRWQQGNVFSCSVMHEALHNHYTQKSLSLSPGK
Method: (§1) The initial screen of CA8 chimeric and humanised variants was carried out on the ProteOn XPR36 (Biorad). The method was as follows; Protein A was immobilised on a GLC chip (Biorad, Cat No: 176-5011) by primary amine coupling, CA8 variants were then captured on this surface and recombinant human BCMA (in house or commercial US Biological, B0410) materials (run 2 only)) passed over at 256, 64, 16, 4, 1 nM with a 0 nM injection (i.e. buffer alone) used to double reference the binding curves, the buffer used is the HBS-EP buffer. 50 mM NaOH was used to regenerate the capture surface. The data was fitted to the 1:1 model using the analysis software inherent to the ProteOn XPR36. Run 1 corresponds to the first screen of humanised CA8 variants (JO to J5 series) and run 2 to the second screen of humanised CA8 variants (J5 to J9 series). Both runs were carried out at 25° C.

Cyno in house BCMA = assay: ProteOn analysis of CA8 chimeric and humanised constructs, cyno in house BCMA; conditions: 25° C.
Human commercial BCMA = biological target: T1, Human commercial BCMA; assay: ProteOn analysis of CA8 chimeric and humanised constructs, commercial human BCMA; conditions: Run 2, commercial human BCMA, 25° C.
Method: as §1

Human in house BCMA [2] = biological target: T2, Human in house BCMA; assay: ProteOn analysis of new anti-BCMA chimeric constructs; conditions: 25° C.
Method: The initial screen of the new chimeric variants from the second batch of hybridomas was carried out on the ProteOn XPR36 (Biorad). The method was as follows; Protein A was immobilised on a GLM chip (Biorad, Cat No: 176-5012) by primary amine coupling, anti-BCMA variants were then captured on this surface and recombinant human BCMA (in house material) passed over at 256, 64, 16, 4, 1 nM with a 0 nM injection (i.e. buffer alone) used to double reference the binding curves, the buffer used is the HBS-EP buffer. Regeneration of the capture surface was carried out using 50 mM NaOH. The data was fitted to the 1:1 model using the analysis software inherent to the ProteOn XPR36. The run was carried out at 25° C.

Row | Molecule | ka (Human in house BCMA [1]; Run 1, Human in house BCMA) | kd (Human in house BCMA [1]; Run 1, Human in house BCMA) | ka (Human in house BCMA [1]; Run 2, Human in house BCMA) | kd (Human in house BCMA [1]; Run 2, Human in house BCMA) | KD (Cyno in house BCMA; Run 1, Cyno in house BCMA) | KD (Cyno in house BCMA; Run 2, Cyno in house BCMA) | ka (Human commercial BCMA; in M-1s-1 (unit assumed)) | kd (Human commercial BCMA; in s-1 (unit assumed)) | ka (Human in house BCMA [2]) | kd (Human in house BCMA [2])
1 | B1 | 4.75E+05 | 1.95E−03 | 4.79E+05 | 1.65E−03 | No | No | 1.55E+06 | 1.48E−03 |  | 
2 | B2 |  |  |  |  |  |  |  |  | 3.11E+05 | 3.77E−03
